# Reference: PubChem BioAssay AID1671194 (National Center for Advancing Translational Sciences (NCATS), 2021)
# The campaign covered roughly 140,000 compounds. About 240 (0.17%) were called active. Inconclusive results, whose numbers are uncertain, are shown with a selection of clear calls. Calls come from the whole dose curve; as a rule, active = well fitted inhibition curve with a large enough effect; inconclusive = small, poorly fitted or top-dose-only effect; inactive = no such curve, though single readings can be large or run the other way. A potency beside an inconclusive call is a rough fit, not a confirmed value.
# Test: Primary qHTS assay for inhibitors of alpha-synuclein gene (SNCA) expression; note: nearly all actives have a fitted effect of over 45% in size;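 for activity change, negative = inhibition: plate controls were DMSO cells for no effect and cell-free wells for full effect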
# Conditions: HEK-293 SNCA-luciferase knock-in, luminescence, 24 h; activity change, negative = inhibition: at 57.2 µM (top of the series) unless noted
# Potency is the fitted concentration of half-maximal effect; tags give direction and shape of the fitted curve.
Compound,"activity change, negative = inhibition",Potency
Cn1cc(C2CCN(C(=O)c3sc(Cl)c(Cl)c3Cl)CC2)c2ccccc21,inactive: -11.7%,
COc1ccc(NC(=O)c2ccco2)cc1NC(=O)c1cc(Br)ccc1Cl,,"inconclusive: 39.8 µM [inhibitor, single point]"
COc1ccccc1C(=O)N1CCCC(c2nnc3n2CCN(C(=O)C2CC2)C3)C1 (centres undefined),,"inconclusive: 20 µM [inhibitor, single point]"
CC(C)CNc1ccc2c(n1)C(C)(C(=O)Nc1cccnc1)CN(Cc1ccccc1)C2 (centres undefined),,"inconclusive: 56.2 µM [inhibitor, single point]"
Cc1ccc(NC(=O)Cn2c(=O)c(-c3noc(C)n3)c3n(c2=O)CCCCC3)c(C)c1,,"inconclusive: 11.2 µM [inhibitor, partial curve, poor fit]"
Cc1cccc(-n2c(-c3ccco3)nc3c(cnn3-c3ccc(F)cc3)c2=O)c1,,"inconclusive: 31.6 µM [inhibitor, partial curve, poor fit]"
Cc1ccc(C)c(N(C)S(=O)(=O)c2ccc3[nH]cc(C(=O)NC4CCCC4)c(=O)c3c2)c1,,"inconclusive: 28.2 µM [inhibitor, single point]"
COc1ccc(CN2CCc3nc(C(C)C)nc(-c4ccc(Cl)cc4)c3CC2)cc1,,"inconclusive: 10 µM [inhibitor, partial curve, poor fit]"
CCc1ccc(OCC(=O)Nc2ccc(Cl)c(-c3nc4ncccc4o3)c2)cc1,,"inconclusive: 22.4 µM [inhibitor, single point]"
CCc1ccc(C(=O)N2c3ccccc3CC2c2nc(C3CC3)no2)cc1 (centres undefined),inactive: -8.06%,
Cc1c(C(=O)OCCOc2ccccc2)[nH]c2c1C(=O)CC(c1ccccc1Cl)C2 (centres undefined),,"inconclusive: 35.5 µM [inhibitor, single point]"
C=CCn1cc2c3c(cccc31)[C@H](CC(C)C)N[C@H](C(=O)NCc1ccc(F)cc1)C2,,"inconclusive: 8.91 µM [inhibitor, single point]"
CCc1ccccc1S(=O)(=O)N1CCCN(C)c2ccccc21,,"inconclusive: 22.4 µM [inhibitor, single point]"
COc1ccccc1-c1[nH]nc2ncc(C(=O)N3CCNC(=O)C3)nc12,inactive: -15.3% [at 87.6 µM],
CCCCOc1ccc(C(=O)NCCc2csc(-c3ccc(OC)cc3)n2)cc1,,"inconclusive: 39.8 µM [inhibitor, single point]"
Cc1ccc(-n2ncc3c(N4CCCCCC4)ncnc32)cc1C,,"inconclusive: 3.98 µM [inhibitor, full curve, poor fit]"
CCCCNc1ncnc2c1CN(C1CCCNCC1)C(=O)CN2C (centres undefined),,"inconclusive: 1.58 µM [inhibitor, full curve, poor fit]"
COc1ccc(Nc2ccnc(N3CCCC(C(=O)NCc4cccc(OC)c4)C3)n2)cc1 (centres undefined),,"inconclusive: 8.91 µM [inhibitor, partial curve]"
O=C([C@@H]1C[C@H](Oc2cccnc2)CN1S(=O)(=O)Cc1ccccc1)N1CCOCC1,,"inconclusive: 5.01 µM [inhibitor, single point]"
COc1cc(OC)c(CNC(=O)c2c(C)noc2-c2cccs2)c(OC)c1,,"inconclusive: 7.94 µM [inhibitor, full curve, poor fit]"
CN1CC(=O)N(c2ccc(Cl)cc2)Cc2c1ncnc2N1CCC(c2ccccc2)CC1,,"inconclusive: 22.4 µM [inhibitor, partial curve, poor fit]"
COc1ccccc1CNC(=O)c1c(OCC(C)C)cc(=O)n2c1CCCCC2,inactive: -0.515%,

Compound,"activity change, negative = inhibition",Potency
CCN(CC)C(=O)c1sc2c(c1C)c(=O)n(CCc1ccccc1)c(=O)n2Cc1cccc(Cl)c1,,"inconclusive: 25.1 µM [inhibitor, partial curve, poor fit]"
CN(C)c1ccc(-c2cncnc2NCCN2CCOCC2)cc1,,"inconclusive: 14.1 µM [inhibitor, partial curve, poor fit]"
CC(C)(Oc1nn(CCN2CCOCC2)c2ccccc12)C(=O)NCCc1ccccc1,,"inconclusive: 56.2 µM [inhibitor, single point]"
Cc1ccc(-c2ccccc2CN)cc1Cl,inactive: 19% [at 87.6 µM],
O=C1CCCc2occ(C(=O)N3CCCC4(CCNC4)C3)c21 (centres undefined),inactive: 26%,
COC(=O)c1c(NC(=O)COc2ccc(OC)cc2)sc2c1CCC(C)C2 (centres undefined),,"inconclusive: 25.1 µM [inhibitor, single point]"
CC(C)N1CCN(C(=O)C2Cn3cccc3C(=O)N2C)CC1 (centres undefined),,"inconclusive: 7.08 µM [inhibitor, full curve, poor fit]"
COc1ccccc1-c1cccc(CN2CCC(NC(=O)Nc3ccccc3)CC2)c1,inactive: -0.0941%,
COc1ccc(-c2noc(CC3CCN(C(=O)c4ccc(OC)c(OC)c4)CC3)n2)cc1,inactive: 4.49%,
O=S(=O)(c1cccc2ccccc12)N1CCCC(CO)(Cc2cccc(Cl)c2)C1 (centres undefined),inactive: -3.98%,
O=C(CCC1CCCCC1)NC1CCN(c2ccc(=O)n(CC3CC3)n2)CC1,,"inconclusive: 1.26 µM [inhibitor, partial curve, poor fit]"
Cn1cc(CN2CCN(c3cnccn3)CC2)c(-c2ccc(C3CCCCC3)cc2)n1,inactive: 41.6%,
C=CCNC(=O)c1cccn2nccc12,,"inconclusive: 39.8 µM [inhibitor, single point]"
O=C(Nc1ccccc1)N1CCC(c2nn(-c3ccc(Cl)cc3)c(=O)[nH]2)CC1,,"inconclusive: 6.31 µM [inhibitor, partial curve, poor fit]"
CN1CCN(S(=O)(=O)c2cccc(C(=O)N3C[C@@H]4CCN[C@@H]4C3)c2)CC1,,"inconclusive: 3.55 µM [inhibitor, partial curve, poor fit]"
COc1ccccc1Nc1ccnc(N2CCC(NC(=O)NC3CCCC3)CC2)n1,inactive: 13.7%,
O=C(C1CCCC1)N1CC2(CCCN(Cc3c[nH]c4ccccc34)C2)Cc2ccccc21 (centres undefined),,"inconclusive: 15.8 µM [inhibitor, single point]"
Cc1ccccc1NC(=O)Cn1c(=O)n(-c2ccc(F)cc2)c(=O)c2c1cc(C)n2C,,"inconclusive: 3.55 µM [inhibitor, full curve, poor fit]"
Fc1ccc(OCCc2noc(C3CCCN3)n2)cc1 (centres undefined),,"inconclusive: 39.8 µM [inhibitor, single point]"
COc1ccc(NC(=O)[C@@H]2C[C@@H](c3cccc(C(F)(F)F)c3)N(CC3CCOCC3)C2)cc1,,"inconclusive: 39.8 µM [inhibitor, single point]"
Cc1cccc(C(=O)NC(=O)Nc2ccc(-n3nc(C(F)(F)F)cc3C(F)(F)F)cc2)c1,,"inconclusive: 39.8 µM [inhibitor, single point]"
Cc1c2cnn(CC(=O)NCc3ccc(F)cc3)c(=O)c2c(C)n1Cc1ccccc1Cl,,"inconclusive: 1.58 µM [inhibitor, full curve, poor fit]"

Compound,"activity change, negative = inhibition",Potency
CN(C)c1ccc(CN2CC[C@H](c3nc4ccc(C(F)(F)F)cc4[nH]3)C2)cc1,,"inconclusive: 25.1 µM [inhibitor, partial curve, poor fit]"
O=C(NCc1ccnc2[nH]ccc12)c1cncc(Br)c1,inactive: 25.8% [at 87.6 µM],
COc1cccc(-c2ccc(C(=O)N3CCC(N[S+](=O)([O-])c4ccccc4)CC3)cc2)c1,inactive: -25.6%,
O=C(COc1ccc(Cl)cc1)N1CCC(c2n[nH]c(=O)n2Cc2ccc(F)cc2)CC1,inactive: 22.2%,
CN(C)C(=O)NC1CCCN(Cc2ccc(-c3cncnc3)cc2)C1 (centres undefined),inactive: -28% [at 87.6 µM],
Cc1nc2c(c(-c3ccc(Cl)cc3)n1)CCN(C(=O)Cc1ccc(F)cc1)CC2,inactive: 5.87%,
Cc1cc(C)n(CCC(=O)N2CC(Oc3ccc(-c4nc(-c5ccccc5)no4)cc3)C2)n1,,"inconclusive: 31.6 µM [inhibitor, partial curve, poor fit]"
CCCNc1cc(N2CCC(CCC(=O)N3CCN(c4cccc(C)c4)CC3)CC2)ncn1,,"inconclusive: 31.6 µM [inhibitor, single point]"
COC(=O)NC1CCN(Cc2cccc(-c3cccs3)c2)CC1,inactive: -8.92% [at 87.6 µM],
CCOC(=O)c1[nH]c(C)c(CCC(=O)NCc2ccc(OC(C)C)cc2)c1C,,"inconclusive: 31.6 µM [inhibitor, single point]"
Cc1ccc(C2(C(=O)N[C@@H]3COCC[C@@H]3OCc3ccccc3)CC2)cc1,inactive: -4.78%,
O=C(O)c1ccc(-c2cccc(C(F)(F)F)c2)cc1,,"inconclusive: 35.5 µM [inhibitor, partial curve, poor fit]"
O=[S+]1([O-])NCC2(CCN(Cc3cccc(C(F)(F)F)c3)C2)Oc2ccncc21 (centres undefined),,"inconclusive: 39.8 µM [inhibitor, single point]"
CCCCOc1ccc(CNC(=O)Cc2ccc(NC(=O)N3CCCCc4ccccc43)cc2)cc1,,"inconclusive: 28.2 µM [inhibitor, single point]"
CCOC(=O)c1c(Nc2ccc(F)cc2)nnc(-c2ccccc2)c1-c1ccccc1,,"inconclusive: 39.8 µM [inhibitor, single point]"
COc1ccccc1-n1cc(C(=O)NC2CCCN(C3CCCCCC3)C2)cn1 (centres undefined),,"inconclusive: 39.8 µM [inhibitor, single point]"
Cc1nc2ccc(S(=O)(=O)N(CC(=O)Nc3cccc(Cl)c3)Cc3ccccc3)cc2s1,,"inconclusive: 35.5 µM [inhibitor, single point]"
O=C1c2cnc(-c3ccsc3)nc2OCCN1c1cccc(C(F)(F)F)c1,inactive: 71.7% [at 87.6 µM],
O=C(COc1ccccc1)N1CCC2(CC1)NC(=O)N(c1ccccc1Cl)N2,inactive: 5.82%,
Cc1ccc(C2c3[nH]c4ccccc4c3CCN2C(=O)c2ccccc2Br)cc1 (centres undefined),,"inconclusive: 10 µM [inhibitor, partial curve]"
